ChEMBL document CHEMBL4888484, “Replenishing the malaria drug discovery pipeline: Screening and hit evaluation of the MMV Hit Generation Library 1 (HGL1) against asexual blood stage Plasmodium falciparum ,using a nano luciferase reporter read-out” (2022)
Out of some 150,000 compounds screened, about 540 (0.36%) showed an effect of 50% or more. The list shows a part of the results.

Test system: Plasmodium falciparum
Experiment: Primary screen in NF54 nanoGlo assay, in single point, at 2uM, 72h; a lower Z score goes with more inhibition
Assay type: functional, Erythrocyte
Conditions: timepoint 72 hour

Row | SMILES | % Inhibition | Z score
1 | Cn1cc(-c2csc(-c3ccc(S(C)(=O)=O)cc3)n2)cn1 | -16% | 2.2
2 | CC(NC1C2CC1N(C(=O)OC(C)(C)C)C2)c1cccnc1 (centres undefined) | -6% | 0.9
3 | Cc1ccc(-c2csc(NC(=O)[C@@H]3CCCN3C(=O)c3ccccc3O)n2)cc1C | -12% | 1.33
4 | COc1ccc(NC(=O)Cn2nc3c(N4CCC[C@H](C)C4)nccn3c2=O)cc1OC | -2% | 0.22
5 | CC(C)OC(=O)N1C[C@@H]2CC[C@H]1CN(C(=O)c1ccncc1)C2 | -9% | 1.43
6 | Cc1nc(CN(C)c2ncccc2C(=O)OC(C)C)cs1 | -2% | 0.21
7 | Cc1nnc(Cn2cnc(-c3ccccc3)c2-c2cccc3cnccc23)o1 | -6% | 1.25
8 | Cc1cc(N)n(-c2ccc(-c3noc(-c4cc(C(C)C)on4)n3)cc2)n1 | 15% | -3.24
9 | CN1CCc2ncnc(NCc3cccc(Cl)c3O)c2C1 | -11% | 1.66
10 | COc1cccc(C(=O)N2CCN(C(=O)c3cc(=O)[nH]c(=O)[nH]3)CC2)c1 | -2% | 0.28
11 | COc1ccc2cc1OCC(=O)N[C@@H](C)C(=O)N(C)CCCCN(C(=O)COc1cccc(C)c1C)CCCNC(=O)CC2 | 3% | -0.42
12 | CN(c1ccccc1)c1nc(-c2ccccc2)no1 | -10% | 0.84
13 | CC(C)(C)Nc1c(-c2ccc(C(C)(C)C)cc2)nc2c(OCc3ccccc3)cccn12 | -19% | 1.76
14 | CCNC(=O)Nc1ccc2c(c1)CN(C(=O)Cc1cccc(F)c1)CCO2 | -3% | 0.51
15 | Cc1n[nH]c(C)c1CNC(=O)[C@H](N)CC(C)(C)C | -4% | 0.75
16 | Cc1cnc(C(=O)NC[C@@H](C(C)C)N2CCN(C)CC2)cn1 | 12% | -1.54
17 | Cn1cc(CCC(=O)N2CCCC2CC2CC3CCC2C3)cn1 (centres undefined) | -20% | 1.74
18 | CC(C)n1cnc2cc(CNC(=O)C3CCCCC3)ccc21 | -24% | 2.32
19 | O=C(CNC(=O)OCc1ccccc1)NC1CCCCCCC1 | 7% | -1.33
20 | CC(=O)N1CCCCC1CC(=O)N1CC(C)C(N2CCOCC2)C1 (centres undefined) | 3% | -0.36
21 | Fc1ccccc1CN1CCOC[C@H](Oc2cccnc2)C1 | 8% | -0.99

Row | SMILES | % Inhibition | Z score
22 | Cc1ccc(NC(=O)[C@@H](F)C(F)(F)F)cc1 | -2% | 0.41
23 | COc1cc(-c2cccc(OC)c2C(=O)N(C(C)C)C(C)C)nc(N)n1 | -9% | 1.18
24 | CC(=O)N1CCOCC1C(=O)N1CCCC(CCC(C)C)C1 (centres undefined) | -10% | 1.39
25 | CC(C)CC(NC(=O)OC(C)(C)C)C(=O)N1CCC(C(=O)NC(C(=O)O)C(C)C)CC1 (centres undefined) | -2% | 0.26
26 | CCc1noc(C)c1C(=O)N1CCC[C@H](c2nccn2Cc2cccnc2)C1 | -2% | 0.4
27 | Cc1ccc(CCN(CC(F)(F)F)C(=O)[C@@H]2CCN(C)S2(=O)=O)cc1 | 5% | -0.74
28 | C[C@@H](C(=O)N1CCCc2ccccc21)N(C)Cc1nccn1C(F)F | 15% | -2.7
29 | CC1(C)CCC[C@H](NCCNc2cccnc2)C1 | -7% | 1.53
30 | Cc1cccc(C(=O)Nc2ncccc2OCc2cccnc2)c1F | -3% | 0.27
31 | Cc1cccc(NC(=O)Cn2nc3n(c2=O)CCCC3)c1 | -3% | 0.36
32 | O=C(NCc1ccc2c(n1)CCCC2)c1ocnc1C1CC1 | -2% | 0.27
33 | C[C@H](NCc1nc(C2CC2)nn1C)c1c(F)cccc1F | -13% | 2.41
34 | CC(C)N1CCN(C(=O)[C@@H](N)C2CCCCC2)CC1 | -5% | 0.51
35 | C[C@H]1CCCN(C(=O)Cn2ccn3nc(-c4ccc(F)cc4)c(CO)c3c2=O)C1 | -7% | 0.67
36 | Cc1c(NC(=O)CC2(CC(=O)O)CCCCC2)c(=O)n(-c2ccccc2)n1C | -9% | 1.31
37 | O=C(c1ccccc1)c1nccn1CCS(=O)(=O)c1ccccc1 | -3% | 0.6
38 | CCC(=O)Nc1cc(-n2cncn2)ncn1 | -5% | 0.73
39 | COc1cc2c(cc1OC)CN([C@@H](C)c1nnc(-c3ccc(F)cc3)o1)CC2 | -10% | 1.43
40 | CC1=NO[C@@H](CNC(=O)Nc2cc(C)ccc2C)C1 | -6% | 0.8
41 | O=C(c1ccccn1)N1CCCn2nc(-c3ccc(Cl)cc3)cc2C1 | -5% | 0.84
42 | O=C(C1CC12CCCC2)N1CCCC(S(=O)(=O)N2CCc3ccccc32)C1 (centres undefined) | 35% | -5.12
